# Laboratory results from PubChem BioAssay AID504333 (National Center for Advancing Translational Sciences (NCATS), 2011).
# Values joined by “and” are separate entries in the source; they are usually repeats but may differ in a detail not shown here. Equal values may be shown once. Screen size: about 360,000 compounds; about 16,000 (4.4%) were called active. This list was built around the results that the source calls inconclusive (neither active nor inactive); the mix of calls is not that of the screen. Calls follow the shape of the dose curve; as a rule, active = well fitted inhibition curve with a large enough effect; inconclusive = small, poorly fitted or top-dose-only effect; inactive = no such curve, though single readings can be large or run the other way. Where the call is inconclusive, the potency comes from a doubtful curve fit.
# Biological target: Bromodomain adjacent to zinc finger domain protein 2B (Homo sapiens) (UniProt Q9UIF8)
# Assay: qHTS Assay for Inhibitors of BAZ2B; also: nearly all actives have a fitted effect of over 60% in size
# Settings: AlphaScreen BAZ2B-H3K14Ac peptide displacement; activity change, negative = inhibition: at 114 µM (top of the series) unless noted
# Procedure, shortened: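 Multi-concentration screen (max 110 uM) measuring displacement of acetylated histone H3 peptide from BAZ2B by AlphaScreen, using 50 nM protein, 50 nM peptide and 10 ug/mL streptavidin donor plus Ni-chelate acceptor beads.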
# % is scaled to controls: 0 for no effect and ±100 for the full control effect; potency is read from the fitted curve at half-maximal effect; tags tell the direction and shape of the fitted curve.
# Chain of UniProt Q9UIF8 (Q9UIF8 whole entry, looked up, the tested form may be a part): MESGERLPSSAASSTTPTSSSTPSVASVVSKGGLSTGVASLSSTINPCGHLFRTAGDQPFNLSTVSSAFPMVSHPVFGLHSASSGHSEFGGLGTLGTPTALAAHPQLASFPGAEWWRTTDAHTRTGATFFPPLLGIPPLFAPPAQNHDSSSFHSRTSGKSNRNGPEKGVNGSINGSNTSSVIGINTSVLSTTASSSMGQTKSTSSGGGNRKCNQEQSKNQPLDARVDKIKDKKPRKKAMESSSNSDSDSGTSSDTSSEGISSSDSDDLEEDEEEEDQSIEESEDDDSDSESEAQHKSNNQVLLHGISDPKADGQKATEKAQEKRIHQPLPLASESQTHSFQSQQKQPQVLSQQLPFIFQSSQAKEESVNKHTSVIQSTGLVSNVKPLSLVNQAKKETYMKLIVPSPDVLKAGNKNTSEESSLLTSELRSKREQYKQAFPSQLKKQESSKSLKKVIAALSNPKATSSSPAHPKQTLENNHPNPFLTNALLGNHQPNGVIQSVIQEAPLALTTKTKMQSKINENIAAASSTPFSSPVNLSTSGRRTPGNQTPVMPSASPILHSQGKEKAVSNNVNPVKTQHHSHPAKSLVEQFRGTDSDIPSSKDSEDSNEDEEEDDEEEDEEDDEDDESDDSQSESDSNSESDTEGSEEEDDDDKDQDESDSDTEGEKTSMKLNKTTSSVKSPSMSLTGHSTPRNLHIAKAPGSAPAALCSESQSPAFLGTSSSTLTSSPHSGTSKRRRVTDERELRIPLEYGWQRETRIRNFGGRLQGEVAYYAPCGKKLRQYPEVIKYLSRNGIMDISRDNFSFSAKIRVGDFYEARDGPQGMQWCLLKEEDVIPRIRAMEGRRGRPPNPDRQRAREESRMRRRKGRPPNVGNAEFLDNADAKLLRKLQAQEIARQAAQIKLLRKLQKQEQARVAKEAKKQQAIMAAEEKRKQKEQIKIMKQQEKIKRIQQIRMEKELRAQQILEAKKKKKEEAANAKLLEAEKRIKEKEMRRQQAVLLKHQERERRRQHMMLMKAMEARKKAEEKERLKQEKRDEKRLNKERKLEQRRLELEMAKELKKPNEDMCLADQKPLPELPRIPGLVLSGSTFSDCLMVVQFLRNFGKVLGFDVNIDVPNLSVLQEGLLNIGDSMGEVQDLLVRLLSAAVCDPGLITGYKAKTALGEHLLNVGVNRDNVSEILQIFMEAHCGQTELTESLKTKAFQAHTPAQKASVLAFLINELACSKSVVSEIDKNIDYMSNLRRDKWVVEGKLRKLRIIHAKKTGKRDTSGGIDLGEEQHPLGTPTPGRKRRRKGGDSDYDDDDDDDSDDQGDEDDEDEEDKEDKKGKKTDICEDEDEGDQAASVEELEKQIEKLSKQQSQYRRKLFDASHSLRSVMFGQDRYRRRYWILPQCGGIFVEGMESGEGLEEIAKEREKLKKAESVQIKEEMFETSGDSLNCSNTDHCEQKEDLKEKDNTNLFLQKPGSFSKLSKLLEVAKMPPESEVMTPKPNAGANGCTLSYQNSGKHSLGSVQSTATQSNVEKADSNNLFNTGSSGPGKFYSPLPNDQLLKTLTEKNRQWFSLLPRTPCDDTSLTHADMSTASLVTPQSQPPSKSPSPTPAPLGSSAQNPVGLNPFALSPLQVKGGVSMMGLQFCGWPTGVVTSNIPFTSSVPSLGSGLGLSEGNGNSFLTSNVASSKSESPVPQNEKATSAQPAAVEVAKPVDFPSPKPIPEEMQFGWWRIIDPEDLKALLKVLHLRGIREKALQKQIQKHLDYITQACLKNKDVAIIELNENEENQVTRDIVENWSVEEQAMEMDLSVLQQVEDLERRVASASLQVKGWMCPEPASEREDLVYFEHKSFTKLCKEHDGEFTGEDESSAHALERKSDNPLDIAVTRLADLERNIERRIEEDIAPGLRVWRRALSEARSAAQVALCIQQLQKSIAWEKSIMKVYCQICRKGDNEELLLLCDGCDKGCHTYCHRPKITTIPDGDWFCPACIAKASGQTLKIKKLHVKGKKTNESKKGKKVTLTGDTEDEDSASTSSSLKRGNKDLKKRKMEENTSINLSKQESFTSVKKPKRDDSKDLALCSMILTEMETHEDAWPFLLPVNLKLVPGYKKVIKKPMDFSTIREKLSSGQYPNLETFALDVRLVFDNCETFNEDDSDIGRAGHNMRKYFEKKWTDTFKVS
SMILES,Potency,"activity change, negative = inhibition"
[O-][n+]1c(/C=C/c2ccccc2)ccc2ccccc21,"inconclusive: 79.4 µM [inhibitor, single point]",–
CN(Cc1ccc(Cl)c(Cl)c1)C(=O)CN1C(=O)NC2(CCCC2)C1=O,–,inactive: -1.08%
COC(=O)c1ccc(C(=O)OC)c(NC(=S)N2CCN(c3ccc(F)cc3)CC2)c1,"inconclusive: 28.2 µM [inhibitor, partial curve]",–
COC(=O)NC(NC(=S)Nc1ccccc1OC)C(Cl)(Cl)Cl (stereo unspecified),–,inactive: 7.18%
COc1ccc(Cc2c(O)nc(SCC(=O)NC34CC5CC(CC(C5)C3)C4)[nH]c2=O)cc1,"inconclusive: 35.5 µM [inhibitor, full curve]",–
O=C(C1COc2ccccc2O1)N1CCN(Cc2ccccc2)CC1 (stereo unspecified),"inconclusive: 100 µM [inhibitor, single point]",–
Cn1c(=O)oc2cc(S(=O)(=O)NCCC(=O)N3CC=C(c4ccccc4)CC3)ccc21,"inconclusive: 100 µM [inhibitor, single point]",–
Cc1cccc(N2C(=O)/C(=C\c3ccc(OC(F)F)cc3)c3ccccc3C2=O)c1,"inconclusive: 70.8 µM [inhibitor, single point]",–
CC1CCN(c2ccc(NC(=O)Cn3c(=O)oc4ccccc43)cc2)CC1,"inconclusive: 89.1 µM [inhibitor, partial curve]",–
COc1cccc(CC2(CO)CCCN(Cc3cc4ccccc4[nH]3)C2)c1 (stereo unspecified),"inconclusive: 79.4 µM [inhibitor, single point]",–
O=C(CSc1nc(COc2ccccc2)nc2ccccc12)NC1CCCC1,–,inactive: -28%
O=C(c1cccc(Oc2ccc([N+](=O)[O-])cc2Cl)c1)N1CCCCC1,"inconclusive: 39.8 µM [inhibitor, partial curve]",–
Cc1c(CCC(=O)NCCCn2ccnc2)c(=O)oc2cc3oc4c(c3cc12)CCCC4,"inconclusive: 15.8 µM [inhibitor, full curve]",–
CC(=O)c1cccc(OCC(=O)Nc2ccccc2N2CCOCC2)c1,–,inactive: 7.04%
CCN1C(=O)/C(=C\c2cn(CCC#N)nc2-c2ccc(F)cc2)SC1=S,active: 35.5 µM,–
Cc1coc2c1C(=O)C(=O)c1c-2ccc2c(C)cccc12,active: 35.5 µM,–
COc1cc(/C=N/NC(=O)CNC(=O)c2ccncc2)ccc1O,–,inactive: -7.73%
C1=CC2CC1CC2CNCc1ccco1 (stereo unspecified),"inconclusive: 100 µM [inhibitor, single point]",–
COc1ccccc1CN1CCN(Cc2nc(-c3ccc(C)cc3)oc2C)CC1,–,inactive: -33.1%
Nc1nc(-c2cc3c(cc2Cl)OCCO3)cs1,"inconclusive: 44.7 µM [inhibitor, partial curve]",–
Cc1ccc(N(CC(=O)NCC(O)c2ccccc2)S(=O)(=O)c2ccc(C)cc2)cc1 (stereo unspecified),"inconclusive: 35.5 µM [inhibitor, single point]",–
CC(=O)c1ccc(NC(=O)Cn2nc(N3CCN(c4ccccc4)CC3)ccc2=O)cc1,"inconclusive: 70.8 µM [inhibitor, single point]",–
Nc1nc(CN2CCN(c3ccccn3)CC2)nc(Nc2ccc(Cl)cc2)n1,active: 50.1 µM,–

SMILES,Potency,"activity change, negative = inhibition"
Cc1cc(C)n2c(=S)[nH]nc2n1,active: 39.8 µM,–
O=C1NCCCC2c3c(cc(Br)c(O)c3Br)OC12N1CCCCC1 (stereo unspecified),"inconclusive: 89.1 µM [inhibitor, single point]",–
Cc1cc(N2C(=O)C(O)=C(C(=O)c3ccco3)C2c2ccccc2F)no1 (stereo unspecified),"inconclusive: 89.1 µM [inhibitor, single point]",–
N#CCC(=O)Nc1sc2c(c1C(N)=O)CCCC2,–,inactive: -2.32%
COc1ccc(NS(=O)(=O)c2ccc3nc(-c4ccccc4)[nH]c3c2)cc1,–,inactive: 2.26%
Cc1ccc(NC(=S)N2CCn3cccc3C2c2cccnc2)cc1 (stereo unspecified),"inconclusive: 89.1 µM [inhibitor, single point]",–
C(=C\c1ccc2ccccc2n1)/c1ccccc1,–,inactive: 262%
COc1ccc(CN(CC2CCCO2)C(=O)c2cc3sccc3n2C)c(OC)c1 (stereo unspecified),active: 56.2 µM,–
CCOC(=O)C1=C(C)Nc2nc(SCC)nn2C1c1ccc(OC)cc1 (stereo unspecified),–,inactive: 3.92%
CCN(Cc1ccccc1)S(=O)(=O)c1ccc(-c2coc(C)n2)cc1,"inconclusive: 79.4 µM [inhibitor, single point]",–
COc1ccc(-c2nc(CSCC(=O)N3CCN(c4ccc(F)cc4)CC3)c(C)o2)cc1,–,inactive: -25.1%
CCC1(CC)Cc2ccccc2C(CC(=O)N2CCOCC2)=N1,active: 56.2 µM,–
COc1ccc(C2=NN(C(N)=S)C(c3ccccc3)C2)cc1 (stereo unspecified),"inconclusive: 39.8 µM [inhibitor, partial curve]",–
Cc1ccc(S(=O)(=O)N2CCN(C(=O)CSc3nc(N)cc(=O)[nH]3)CC2)c(C)c1,"inconclusive: 79.4 µM [inhibitor, single point]",–
CCOC(=O)c1sc(=S)n(C)c1NC(=O)c1ccc(OC)cc1,"inconclusive: 70.8 µM [inhibitor, single point]",–
Cc1ccc(CN(C(=O)Cn2nnc3ccccc32)C(C(=O)NCc2ccco2)c2ccc(C)o2)cc1 (stereo unspecified),–,inactive: -3.59%
O=C(Nc1ccc(O)cc1)c1ccc2c(c1)C(=O)N(Cc1ccco1)C2=O,"inconclusive: 89.1 µM [inhibitor, single point]",–
O=C(c1ccc(COc2ccccc2[N+](=O)[O-])o1)N1CCCCCC1,–,inactive: -7.87%
CCOC(=O)N1CCN(C(=O)CCN2C(=O)/C(=C\c3ccccc3OC)SC2=S)CC1,"inconclusive: 3.55 µM [inhibitor, full curve, poor fit]",–
Cc1ncc(CO)c(/C=N/NC(=O)c2cc3c(s2)CCCC3)c1O,active: 50.1 µM,–
CCOc1ccc(NC(=O)NC(C)CC)cc1 (stereo unspecified),"inconclusive: 89.1 µM [inhibitor, partial curve]",–
Cc1ccc(C(=O)NC(=S)NCC2CCCO2)cc1[N+](=O)[O-] (stereo unspecified),"inconclusive: 50.1 µM [inhibitor, partial curve]",–
COc1ccc(N2CCN(CCCNC(=O)Nc3ccccc3)CC2)cc1,"inconclusive: 79.4 µM [inhibitor, single point] and inconclusive: 50.1 µM [inhibitor, partial curve]",–
